{
  "source": "paper PMC12136788",
  "binders": {"B1": {"name": "chr8:74858975:74858976:-_ENSG00000154582_ENST00000284811|hu_mus|hu_hu_hu_mus_True|1_48 (ssRNA)", "RNA": "GGGAGUUCUACAGUCCGACGAUCGACCUUGUAGGUAAAAUACAUGCACACUUUUGAUAGCACAUGUGAGGGGAUCUCUCUAAAAUUGACCUCAUUGGUUUCAUUCUCAGCAAACUGACCUGGACCACUCAACAUAGCUUUUAUCAACAGAGGAUUGAGCAUCA"}, "B2": {"name": "chr19:60835742:60835743:+_ENSMUSG00000072437_ENSMUST00000088237|mus_mus|motif|central (ssRNA)", "RNA": "GGGAGUUCUACAGUCCGACGAUCUUCUGAAAAGGACUUUAUAGGAAAAAUAAAGUACAAAAAAGUAAAAAGCCGAUAAAACGGGCAAGUUUGGAUAGACAAAUGCAGGCUAAAGCACAGCACAACCUGUGCCUUUCUGCCCAUCAACAGAGGAUUGAGCAUCA"}, "B3": {"name": "chr2:97007812:97007813:+_ENSG00000121152_ENST00000240423|hu_mus|FALSE|FALSE (ssRNA)", "RNA": "GGGAGUUCUACAGUCCGACGAUCAGAAAGCUUGAUACAGGUAGAGUAAUGUUCUGUAAUCUGUGUGUUUGUAAACUUAGAUAUGGUAGUUGAAACAUCAAUAUUCCUGUUAGGGGAGGCCAGAUGAAUCGAAUCUGUACUGAACAACAGAGGAUUGAGCAUCA"}, "B4": {"name": "chr1:181699228:181699229:-_ENSMUSG00000026491_ENSMUST00000027768|mus_hu|FALSE|FALSE (ssRNA)", "RNA": "GGGAGUUCUACAGUCCGACGAUCAAUUUUAGAUAACACAUUGUUGAUGAAAACAGAUCUUGUCAACACAGUUCCUGUUACAACUUGCUUUGGAACUGCUGAUAAUGGUUUGGGUCUAGAAACUAAUCGAAAAACUGAUGAUGUCAACAGAGGAUUGAGCAUCA"}, "B5": {"name": "chr15:35867035:35867036:-_ENSMUSG00000014313_ENSMUST00000014457|mus_mus|FALSE|FALSE (ssRNA)", "RNA": "GGGAGUUCUACAGUCCGACGAUCAGAAGACCACGCAUCUGUGGUUUGGGCAACAGCGCACCGGAACUCAUGGUAGCCAAUGUCCUCUACACCAACGUCCUUCCCGGUUCUCGGAGAAACGGAGAGCCUUCCAGCAGCACGCAUCAACAGAGGAUUGAGCAUCA"}, "B6": {"name": "chr4:140556289:140556290:+_ENSMUSG00000036622_ENSMUST00000037055|mus_mus|mus_mus_mus_hu_False|1_48 (ssRNA)", "RNA": "GGGAGUUCUACAGUCCGACGAUCGAUGGAGCUCACCAGGCCCCCUUUUGCCGUGCAGAACCCUGUGCGGGUCACCACUGCCAGGACACGGGGUCCCACAUAGGCCCGGGCCUGCAAGAUGAGGGUCCCGCAGAAGAGGGUGUGCAACAGAGGAUUGAGCAUCA"}, "B7": {"name": "chr2:128891733:128891734:+_ENSMUSG00000027394_ENSMUST00000035812|mus_mus|FALSE|FALSE (ssRNA)", "RNA": "GGGAGUUCUACAGUCCGACGAUCCCUCAGCCUCAGCCCCGCUGUCGGUCUAAUUCCAGGGCCGCGCCUCCGGAUUACCCUAGUGUCUGCCCUGGGCGCCCGCGCCACCGCCCGAGUGGCGAGCGCCACCCGGACGCCGCGCCCCAACAGAGGAUUGAGCAUCA"}, "B8": {"name": "chr2:179515052:179515053:+_ENSMUSG00000000305_ENSMUST00000000314|mus_hu|mus_mus_mus_hu_False|18_18 (ssRNA)", "RNA": "GGGAGUUCUACAGUCCGACGAUCGCUGUCCCAUGCAGUCACCGUGAACGCCACCUGCUCGGAGGGGACCUGCAGCUCCCGGGUGGCGAAGACUGUCCCAUCUGCCCCAACUUUGAAGUCCAAGCUGUUGGUCUCAUAUUGUGUCAACAGAGGAUUGAGCAUCA"}, "B9": {"name": "106613029_106613149_2307_3pUTR_ENSMUSG00000040661_ENSMUST00000046502|mouse|control|control (ssRNA)", "RNA": "GGGAGUUCUACAGUCCGACGAUCUCCUGGAAAGGGUUAAAGCCAACUCCCUGUAGGAACUUGCUGUUGGUUGCUUCUCCCAUUGAGGAAGGCAAGGCACUAUCUUCUCCCUUGACUUUUGUGCCAUGUGGUGGGCAGCGGGCACAACAGAGGAUUGAGCAUCA"}, "B10": {"name": "chr14:57521665:57521666:+_ENSMUSG00000021945_ENSMUST00000022511|mus_mus|motif|central (ssRNA)", "RNA": "GGGAGUUCUACAGUCCGACGAUCAACAACGUCAUCAUCAUCUUCUACUGAUGAGUUCUGAAACUUACUAGAUCUAGACACGGAAGGAUUAGGUGGGCCACUAAAUGAAUUUCCUACGUUCGUGAGACUAGUUGCCAUGGCUGUCAACAGAGGAUUGAGCAUCA"}, "B11": {"name": "chr15:38448722:38448723:-_ENSMUSG00000037458_ENSMUST00000152833|mus_mus|FALSE|FALSE (ssRNA)", "RNA": "GGGAGUUCUACAGUCCGACGAUCAGAUAACGGCCCAAAGAGUCGGGUAAAGCGUCUUCUCUUUUUCGGCGGAAUUUUUAAAGAGGGAUGUGGUUACCUUGAGCAGAAAUACCCAAGGCGGCCUGGGCCAUAGGCUGCGGGGACCAACAGAGGAUUGAGCAUCA"}, "B12": {"name": "128827806_128827926_1808_3pUTR_ENSMUSG00000040928_ENSMUST00000106061|mouse|control|control (ssRNA)", "RNA": "GGGAGUUCUACAGUCCGACGAUCCCUCUUCCUUACAGUAGACUGGAAGGUGAGUCUGCCUGCCCUUACAGCUGGUAUUUUACUCAAAGCCUGACUGUUCUGACUUAAUGCAGGCCUUCAAAAGAGAAUUACCUUCAUUUAAAACAACAGAGGAUUGAGCAUCA"}, "B13": {"name": "chr1:150923288:150923289:+_ENSG00000143379_ENST00000271640|hu_hu|FALSE|FALSE (ssRNA)", "RNA": "GGGAGUUCUACAGUCCGACGAUCCAAACAGAACAUCUCCAGGAAGAGGAAGUCACAGCCAGUCUCGAAAAGGUAGCGUUCUAUCUCCUGCAUUGUCCGAAGGCAGAGACCACAAGGUGUCUUAUAGAUAACAUGAAAGCCCAUCAACAGAGGAUUGAGCAUCA"}, "B14": {"name": "chr12:39763582:39763583:-_ENSG00000139116_ENST00000544797|hu_mus|hu_hu_hu_mus_False|28_58 (ssRNA)", "RNA": "GGGAGUUCUACAGUCCGACGAUCCUCUAGGAACUGGGCAUUCACUUUGAAUUCAGGAGGGGGCAGCCCGUUUUUAAUUGCUAUGUGCUUUUUCUCAUCAAUACUCUUAAAAAGGUGUCUAACAGCACGAGAGAUGAUGCCCUGCAACAGAGGAUUGAGCAUCA"}, "B15": {"name": "chr3:63791606:63791607:+_ENSMUSG00000027823_ENSMUST00000029405|mus_hu|motif|central (ssRNA)", "RNA": "GGGAGUUCUACAGUCCGACGAUCAAGCAAAACAACUUCUUCCUUCUGAAGGCCCCUGAAUAAUGAACAUGUAUUAUCCACACGGAUGUUGAAAACUCCAUCUUCUCUGACACUUUUUUUGUGCACAGUACCUCCAAAUACCUUCAACAGAGGAUUGAGCAUCA"}, "B16": {"name": "chr6:145166005:145166006:-_ENSMUSG00000030265_ENSMUST00000032399|mus_hu|motif|central (ssRNA)", "RNA": "GGGAGUUCUACAGUCCGACGAUCUUAACACAGAAGUUACUAAAUAUAAAUUCAGCUUUAAGGUAACUGCUGGGUUCGGAAAAACAUUACUACACAAUUAUCAAGAAAUCAUUACUUUUUGACAAAUGGAAAUCUUCAGAUAGUCAACAGAGGAUUGAGCAUCA"}, "B17": {"name": "chr12:72996743:72996744:+_ENSMUSG00000034574_ENSMUST00000085299|mus_mus|motif|central (ssRNA)", "RNA": "GGGAGUUCUACAGUCCGACGAUCAUAAAUGAAAUCCCCCGGCCGCCUCUCUUCCGUGGGGCCAUGGUUGAAUUCUCUCCGGUUUCUUGAUAUUUCUAUACUCUACUGGCCCCGGAGCUCCGGGAAGCAGCAGGAGGGCGCGCCCAACAGAGGAUUGAGCAUCA"}, "B18": {"name": "chr11:4127340:4127341:+_ENSG00000167325_ENST00000300738|hu_mus|hu_hu_hu_mus_False|38_68 (ssRNA)", "RNA": "GGGAGUUCUACAGUCCGACGAUCGGCAUAGUCAGGGUGCUUCGUGGUCAAGGUCGCGGCUGUCUCAGCAGCCAAAGUGUCCAGUUCCACUGUGGUGACCCCACUGUAUAGGCCUUGGAUUACUUUCAUGGUGAUCUGAGCAGGCAACAGAGGAUUGAGCAUCA"}, "B19": {"name": "chr15:103030146:103030147:-_ENSMUSG00000009575_ENSMUST00000118152|mus_hu|FALSE|FALSE (ssRNA)", "RNA": "GGGAGUUCUACAGUCCGACGAUCUUUGUUUUCCGCAUCCUCAGGAUAUGCAUGCCAUGUCAGUCUCUCUUCAUAAAAUGCUAUCACAAUUUGUGGACAUUUCACAUUAGCUUCUUUUGCAAGAACCAGGUCAGCUUCAUCUGUCAACAGAGGAUUGAGCAUCA"}, "B20": {"name": "chr4:142145789:142145790:+_ENSG00000109445_ENST00000262990|hu_hu|motif|central (ssRNA)", "RNA": "GGGAGUUCUACAGUCCGACGAUCACACUGUGCACAAAUUGGUAACUUCUGUACAGAAUUACAAAAGUAGCAAAAUGCUCGGUUCUUCUGCCGCCUCUGACACUUGUCACAUUCCAUUGAGGCAUUACAUGGAUGUUUAGCUAACAACAGAGGAUUGAGCAUCA"}, "B21": {"name": "chr6:42629286:42629287:-_ENSMUSG00000036667_ENSMUST00000045054|mus_mus|motif|central (ssRNA)", "RNA": "GGGAGUUCUACAGUCCGACGAUCAAAUAAAACCUUAUGACCAGUUACAACUACCCGACCCCGGCCAUAGCGAGCUGCAGCGGUCACACAGCCAUGGUAGGUAUCUAGCCCCAAAGGAAAAGCCAAAGACCCAUGAACUAGUAGCAACAGAGGAUUGAGCAUCA"}, "B22": {"name": "123779010_123779130_5566_3pUTR_ENSG00000139697_ENST00000420886|human|control|control (ssRNA)", "RNA": "GGGAGUUCUACAGUCCGACGAUCUGAGUCCCCGUCACAGACUACUUCUGAAGGUCACCAGUGAGGGCCUAAACAAGAGUCCACUUCUUGUUAGUAUAAUAACUUUUUAUUUGACAUCUACAAGAUUUUGGCAUCUUGCAGCUUCAACAGAGGAUUGAGCAUCA"}},
  "note": "The other results are listed elsewhere or left out.",
  "data": [
    {"biological_target": "T1, UNK ZnF1-3 (human, UniProt Q9C0B0 31-174)", "T1 sequence": "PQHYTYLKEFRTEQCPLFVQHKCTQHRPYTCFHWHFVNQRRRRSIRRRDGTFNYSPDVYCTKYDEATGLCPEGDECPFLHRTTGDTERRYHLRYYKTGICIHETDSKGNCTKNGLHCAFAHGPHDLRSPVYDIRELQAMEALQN", "assay": "nsRBNS (natural sequence RNA bind-n-seq); RBNS binding buffer (assumed for nsRBNS): 25 mM Tris pH 7.5, 150 mM KCl, 3 mM MgCl2, 0.01% Triton X-100, 500 ug/ml BSA, 20 U/ml SUPERase-In, 4 C; UNK is unkempt and MSI1 is Musashi-1; names of the RNAs are library labels; protein concentration not given here; high values mean tight binding", "units": {"binding signal": "enrichment R"}, "values": [
      {"binder": "B1", "binding signal": 0.889},
      {"binder": "B2", "binding signal": 0.693},
      {"binder": "B3", "binding signal": 1.12},
      {"binder": "B4", "binding signal": 0.57},
      {"binder": "B5", "binding signal": 0.971},
      {"binder": "B6", "binding signal": 0.769},
      {"binder": "B7", "binding signal": 0.786},
      {"binder": "B8", "binding signal": 0.791},
      {"binder": "B9", "binding signal": 0.884},
      {"binder": "B10", "binding signal": 1.19},
      {"binder": "B11", "binding signal": 1.02},
      {"binder": "B12", "binding signal": 0.665},
      {"binder": "B13", "binding signal": 1.69},
      {"binder": "B14", "binding signal": 1.86},
      {"binder": "B15", "binding signal": 1.15},
      {"binder": "B16", "binding signal": 0.967},
      {"binder": "B17", "binding signal": 0.576},
      {"binder": "B18", "binding signal": 0.921},
      {"binder": "B19", "binding signal": 0.779},
      {"binder": "B20", "binding signal": 0.945},
      {"binder": "B21", "binding signal": 1.03},
      {"binder": "B22", "binding signal": 0.805}
    ]}
  ]
}
